Measured values published in ChEMBL document CHEMBL1201862, “PubChem BioAssay data set” (2004).
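Each compound was tested at five concentrations against cells in 96-well plates for 48 hours. GI50 = concentration required for 50% inhibition of growth.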 Active and inactive are the calls of the source. Rule as the data show it: active = GI50 up to about 1.1 µM and inactive = higher.

What follows are molecules tested on NCI-H322M (assay: NCI anticancer screen, dose series, 48 h).
In the case of Cc1cn([C@@H]2O[C@H](CO)[C@@H](O)[C@@H]2O)c(=O)[nH]c1=O, the GI50 is reported as inactive: > 1000 µM.
For CCOC(=O)NC(=O)c1cn(CCNCCO)c(=O)[nH]c1=O, the GI50 was inactive: > 100 µM.
For Oc1ccc2c(c1)OCC1(O)Cc3cc(O)c(O)cc3C21 (centres undefined), the GI50 was inactive: 29.9 µM.
In the case of CC(=O)OC(C)c1cc2c(s1)C(=O)c1c(C(C)OC(C)=O)csc1C2=O (centres undefined), the GI50 is reported as inactive: 1.45 µM.
With Cc1ccc(C2=Nc3ccccc3SC(c3cccc([N+](=O)[O-])c3)C2)cc1 (centres undefined) the GI50 was inactive: 45.4 µM.
c1ccc([P+](CC[P+](c2ccccc2)(c2ccccc2)c2ccccc2)(c2ccccc2)c2ccccc2)cc1 was tested, and the GI50 was inactive: > 100 µM.
In the case of Nc1nc(O)c2[nH]cnc2[n+]1[O-], the GI50 is reported as inactive: > 100 µM.
In the case of CC(=O)OC1CCC2(C)C(=CCC3C4CCC5(OC6CC(C)CN(C(C)=O)C6C5C)C(C)=C4C(=O)C32)C1 (centres undefined), the GI50 is reported as inactive: 20.1 µM.
With CCOC(=O)C1=C(Nc2ccccc2)OC/C1=N\NC(=O)Cc1ccccc1 the GI50 was inactive: > 50 µM.
With O=C(C#Cc1ccccc1)C1=Cc2ccccc2OC1 the GI50 was inactive: 14.1 µM.
COCCOCOc1ccc(OCc2ccccc2)cc1 was tested, and the GI50 was inactive: > 100 µM.
For CC(=O)OC1CC2Oc3ccc(C)cc3C(C)(O2)C1=O (centres undefined), the GI50 was inactive: > 100 µM.
In the case of N=C(N)SCc1cc(Cl)cc(Cl)c1O, the GI50 is reported as inactive: 18.7 µM.
In the case of O=[N+]([O-])c1ccc(/C=N/Nc2nc3ccccc3[nH]2)o1, the GI50 is reported as inactive: 22.8 µM.
In the case of O=C(O[C@H](/C=C/c1ccccc1)P1(=O)N(Cc2ccccc2)[C@@H]2CCCC[C@H]2N1Cc1ccccc1)c1ccccc1, the GI50 is reported as inactive: 5.71 µM.
In the case of COc1ccc([Se]c2ccc(OC)cc2)cc1, the GI50 is reported as inactive: > 100 µM.
For Cc1cc(NC[C@H](O)[C@H](O)[C@H](O)CO)c(Sc2cc(=O)[nH]c(=O)[nH]2)cc1C, the GI50 was inactive: > 62.5 µM.
In the case of CCCCn1c2c(c3ccccc3c1=O)C(=O)c1ccccc1-2, the GI50 is reported as inactive: > 100 µM.
With COc1ccc(/C=C(\NC(=O)c2ccccc2)c2nc3ccccc3[nH]2)cc1 the GI50 was inactive: 89.3 µM.
For CCCCCCCCCC[C@H](O)[C@H]1CC[C@H]([C@H]2CC[C@H]([C@H](O)CC[C@H](O)CCCCCCC[C@@H](O)CC3=C[C@H](C)OC3=O)O2)O1, the GI50 was inactive: 91.4 µM.
With COC(=O)C1(N2CCOCC2)CCC([C@@H](c2ccccc2)C(C)[N+](=O)[O-])C1 (some centres undefined) the GI50 was inactive: > 100 µM.
With COC(=O)C1CCC(N2C(=O)CCC2C(=O)OC)=N1 (centres undefined) the GI50 was inactive: > 100 µM.
COc1cc([C@@H]2c3cc4c(cc3[C@@H](NC(=O)c3ccc(C(C)=O)cc3)C3COC(=O)[C@@H]32)OCO4)cc(OC)c1O (some centres undefined) was tested, and the GI50 was inactive: 3.74 µM.
In the case of CC(CSc1nc2c(c(=N)n1-c1ccccc1)c(=S)n(-c1ccccc1)c(=S)n2-c1ccccc1)CN(C)C (centres undefined), the GI50 is reported as inactive: 1.9 µM.
In the case of CCN(CC)CCn1c(=O)c2cccnc2n2c3c(=O)n(C)c(=O)n(C)c3nc12, the GI50 is reported as inactive: > 100 µM.
CCOC(=O)C12CCCC1(O)N(NC(N)=O)C(C)=C2C(=O)OC (centres undefined) was tested, and the GI50 was inactive: > 100 µM.
With O=C(Nc1ccc(F)cc1)c1cc2c(cc1Cl)Sc1nccn1S2(=O)=O the GI50 was inactive: > 100 µM.
With COc1ccc(OC)c2c3c([nH]c12)C(=O)Nc1nc(N)nc(N)c1C3 the GI50 was inactive: > 100 µM.
With Nc1cc2c3c(cccc3c1)C(=O)N(c1ccc(OCCN3CCCCC3)cc1)C2=O the GI50 was inactive: 18.4 µM.
In the case of CCCCCCCCCCCCOC(=S)NC, the GI50 is reported as inactive: 20.6 µM.
For COc1cc(C2C3=C(N=C4SC(C(C)=O)=C(C)N42)c2ccccc2CC3)cc(OC)c1OC (centres undefined), the GI50 was inactive: > 100 µM.
With COc1ccc(/C=C2\N=C(SC)N(CN3CCCCC3)C2=O)cc1 the GI50 was inactive: > 100 µM.
CCCn1c(SC)nc(COC(=O)NC)c1COC(=O)NC was tested, and the GI50 was inactive: > 100 µM.
Clc1ncc(Cl)c(Cl)n1 was tested, and the GI50 was inactive: 14.1 µM.
With COc1cc(/C=c2\sc3n(c2=O)C(c2ccc(Cl)cc2)C2=C(CCCC2C)N=3)cc(OC)c1OC (centres undefined) the GI50 was inactive: > 100 µM.
CO/N=C(\C)c1cccc(Nc2c3ccccc3nc3occc23)c1 was tested, and the GI50 was inactive: 25.4 µM.
COc1cc(OC)c(C#N)c(OC)c1C was tested, and the GI50 was inactive: > 100 µM.
With Nc1nc(Cl)c2ncn(Cc3cccc(CCl)c3)c2n1 the GI50 was inactive: 11 µM.
In the case of COc1ccc(-n2nnc3c(C#N)c(-c4ccccc4)c(C)n3c2=O)cc1, the GI50 is reported as inactive: 94.8 µM.
In the case of CCOC(=O)C(Cc1ccc(OC(=O)c2ccc(OC)cc2OC)cc1)NC(=O)C(F)(F)F (centres undefined), the GI50 is reported as inactive: 18.9 µM.
CC1=Nc2c(ccc3c2C(=O)c2ccccc2C3=O)NC(c2ccncc2)C1 (centres undefined) was tested, and the GI50 was inactive: 28.7 µM.
With CC1(c2ccc(Cl)cc2)C2C(=O)NC(=O)C1C(=O)NC2=O (centres undefined) the GI50 was inactive: > 100 µM.
Brc1cccc(/C=C/CN2CCN(CCOC(c3ccccc3)c3ccccc3)CC2)c1 was tested, and the GI50 was inactive: 16.9 µM.
In the case of N#C/C(=C\c1ccccc1Br)C(=O)c1ccccc1, the GI50 is reported as inactive: > 100 µM.
